Over roughly 33,000 sequences, “E-score (-0.5 to 0.5)” has its median near -0.036; the highest 2% begin near 0.37. This is one part of the list.
biological target: T1, Yer064c (UniProt P40041); experiment: PBM E-score (8-mer binding enrichment) (E-score (-0.5 to 0.5)); higher = stronger / more preferred TF binding; most listed sequences are background and not binding sites; conditions: protein concentration: 200 nM; construct: GST-full length
T1 sequence: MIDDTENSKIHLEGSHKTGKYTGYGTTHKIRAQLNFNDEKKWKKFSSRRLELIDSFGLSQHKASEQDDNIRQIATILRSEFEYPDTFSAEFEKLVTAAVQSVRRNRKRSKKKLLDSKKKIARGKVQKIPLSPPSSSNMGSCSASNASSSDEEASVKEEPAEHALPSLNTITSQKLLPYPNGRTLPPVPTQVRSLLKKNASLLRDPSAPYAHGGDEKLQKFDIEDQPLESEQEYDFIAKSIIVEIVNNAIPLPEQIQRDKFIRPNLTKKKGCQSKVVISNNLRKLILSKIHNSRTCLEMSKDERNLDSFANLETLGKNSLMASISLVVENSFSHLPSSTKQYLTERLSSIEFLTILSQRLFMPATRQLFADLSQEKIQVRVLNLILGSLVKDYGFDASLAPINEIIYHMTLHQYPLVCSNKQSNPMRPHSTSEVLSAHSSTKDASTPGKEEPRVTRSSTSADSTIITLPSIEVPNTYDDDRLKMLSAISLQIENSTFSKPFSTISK
How it was run: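 GST-tagged yeast TFs (full-length or DNA-binding domain) were made by PURExpress in vitro transcription/translation and applied at about 100-200 nM to universal all-10-mer Agilent arrays. The arrays were made double-stranded by primer extension, on fresh or once-stripped slides. Bound protein was detected with fluorescent anti-GST, and scans were normalised with masliner. Each ungapped eight-base word, pooled with its reverse complement, received an E-score (modified Wilcoxon-Mann-Whitney statistic) from the Universal PBM Analysis Suite.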

Sequence	PBM E-score
AAAAGAAA	0.0748
AAGCAGCG	-0.0466
ACAGTCGA	0.0356
AGGTAACA	0.0227
GAATGAAC	0.052
GCAATCCC	-0.118
CGCGAACC	-0.176
AAGTTTTC	-0.186
CGACAAAG	-0.0777
ATTCCTGC	-0.0134
CTGTTCTC	-0.075
CAAATCTA	0.0314
CCCTCGGC	-0.294
GAGTCTCC	0.419
GCAAACAC	-0.16
AAAGTCCT	0.0605
ACGCAAAG	-0.1
ACGACTTG	0.17
GTGTCTAA	0.189
GTCCTATA	-0.0544
AAGGGAGT	0.139
CATGAAGA	0.136

Sequence	PBM E-score
AAATGCAA	0.0368
CGACGATA	-0.0558
AACGTGGA	-0.148
AGACGAAG	0.0921
CGCGTATC	-0.177
ATTCCGGG	-0.0471
AGGTAATC	0.25
AGTTCTGA	0.131
CAACTTCA	-0.00156
TGGGAACA	-0.196
ATAAGACA	-0.0428
AAAGGGCA	-0.0738
CTGCTTAC	-0.105
AGCCCACG	-0.024
ACAACAGC	-0.0722
ATCAATCC	-0.0246
CCGTCGAA	-0.104
AAATATTA	0.0244
ACGAGGTA	-0.0549
GTGGACAC	-0.203
CCCCATAG	-0.199
CGTTCCCA	-0.185

Sequence	PBM E-score
CAACAATG	-0.0783
CATATTTC	-0.0612
CCGATTGC	-0.0943
AGCATCAG	-0.067
ATAGTCCA	0.213
CTTGAAAG	0.0114
CTATAGGC	-0.137
GCGCGAGC	-0.143
CCACCGAG	-0.0439
GGGCAACC	-0.122
ACTTGTAT	0.11
ACACTATG	0.133
AGCTCAAG	0.00652
CCGCAAAC	-0.036
TACCCAAA	0.041
CTCACTCC	0.0635
GGGGTGAC	0.171
CTGAGTTC	0.104
GCACGCGA	-0.0742
CTAAGTCC	0.148
AGCACGGA	-0.164
CCCTGGAA	-0.187

Sequence	PBM E-score
CGTTGTCC	0.00374
TGGATAAA	0.0283
ACGTATCC	-0.214
ACACACCC	0.111
CCCGGGAC	-0.261
TCACAAAA	0.22
CTTGTGTC	-0.00569
GTACACTA	-0.00017
TCCATAGA	0.0191
CCTGCCGA	-0.0807
CTATGGCC	-0.196
CCCGAGGC	-0.0736
CCAACTCG	0.0497
ACGGGTTA	-0.378
ATGCCAAG	-0.0388
TAGTGTGA	0.231
AGTCGCGA	0.34
AGCTATCC	-0.396
CTACACGC	-0.0972
ACAAATGG	0.1
CTGTACTA	0.159
AAGTTACA	0.047

Sequence	PBM E-score
CACATGGC	0.152
GATTAAAA	0.343
AGAAGACC	-0.209
CGTAACTC	0.0393
AGGTTCAT	-0.118
CCGCGTGC	-0.134
CATACCAC	-0.142
CGAACGAG	0.00961
GGCGGCCC	-0.0657
AACATTCA	-0.104
GTCGTTGA	0.187
CCATTAGG	-0.193
CGAGAGAG	-0.0959
AATACGAC	0.117
AGCGGCTC	-0.184
AATCTGGA	-0.143
AATACATC	-0.164
CCGGATAC	-0.0856
GGCCATAA	-0.148
ACTTACTA	0.143
ATACCCCA	-0.102
CTTTCTAA	0.115

Reference: the supplement of paper PMC3334620
